Measured values: patent US5776892A, “Anti-inflammatory peptides” (Curative Health Services, Inc., priority 1994, dated 1998)
Part of at least one peptide drawing is inferred or uncertain, most often the ends. Residues, ends and D or L forms follow the SMILES beside them.

Test system: arachidonic acid induced inflammation in mouse ear
Assay: Mouse ear model, arachidonic acid (AA) induced inflammation, ear thickness
Format: in vivo
Description: The anti-inflammatory properties of CT-112 (SEQ. ID NO: 1) were assessed using a standardized assay for anti-inflammatory activity, i.e., the mouse ear model in which arachidonic acid (AA) is used to induce an inflammatory reaction (Young et al., 1984, J. Invest. Dermatol. 82:367-371; Doherty, et al., 1988, J. Invest. Dermatol. 91:298-302).
Female mice (C57BL/6UAF, Charles River Breeding Laboratories, approximately 15-18 g) were obtained and acclimated for 2 weeks prior to use. The animals were approximately 14 weeks old at the start of the study.
To prepare minipumps for implantation, CT-112 (SEQ. ID NO: 1) was dissolved in PBS. The material was loaded into Alzet minipumps set to deliver 0.05 (5 animals), 0.1 (10 animals), 1 (10 animals), or 2.5 (5 animals) mg of CT-112 (SEQ. ID NO: 1) per animal per day. Minipumps for implantation into control animals contained only PBS. As a positive control, one set of 10 mice received 100 mg/kg of phenidone, a potent 5-lipoxygenase inhibitor which acts as an anti-inflammatory agent, 15 min prior to challenge with AA.
For subcutaneous implantation of minipumps, animals were anesthetized with Ketamine/Xylazine. The Ketamine (Aveco Lot #440140) was injected at 80 mg/kg and the Xylazine (Rugby Laboratories Lot #26040-B) at 16 mg/kg and the Alzet pumps were implanted subcutaneously in the dorsothoracic area. Animals were allowed to recover and then housed and given food and water ad libitum for 5 days.
On the sixth day following pump implantation, 0.01 ml of AA was applied to the inner and outer surfaces of the right ear by means of an automatic microliter pipette. One hr following AA application, the mice were sacrificed and ear thickness was measured with a Mitutoyo No. 7300 Gauge Caliper. The left ears were also measured as an internal control.
Mice were implanted with Alzet mini-pumps set to deliver 60 mg/kg/day for either 7, 3, or 1 days. A separate group of 5 mice received 3 intraperitoneal injections of CT-112 (60 mg/kg/injection) at 24, 1 and 0.25 hr prior to AA challenge. CT-112 (SEQ. ID NO: 1) was prepared for injection by dissolving the compound in Dulbecco's PBS to give a final CT-112 (SEQ. ID NO: 1) concentration of 5 mg/ml. The control mice were implanted with Alzet minipumps that delivered PBS for 7 days. The AA challenge was the same as described supra in Example 7.
Administration of CT-112 (SEQ. ID NO: 1) (60 mg/kg/injection) via multiple intraperitoneal injections was performed at the following times prior to AA challenge:
In addition, the effect of a single administration of CT-112 (SEQ. ID NO: 1) (60 mg/kg) by intraperitoneal injection was performed at either 1 or 3 hr prior to AA challenge. Control mice had Alzet minipumps implanted to deliver PBS for 7 days prior to AA challenge. The AA challenge was the same as described supra in Example 7. The results of the multiple dosing regimens and the 1 hr and 3 hr single dosing regimens were compared to the anti-inflammatory activity of CT-112 (SEQ. ID NO: 1) delivered via Alzet minipump set to deliver 60 mg/kg/day for 7 days using 5 animals per treatment.
In a separate experiment, the effect of multiple intraperitoneal injections of CT-112 (SEQ. ID NO: 1) at either 6, 3, 1 and 0.25 hr, or 16, 3, 1 and 0.25 hr prior to AA challenge was assessed. The results of both multi-dosing regimens were compared to both phenidone (100 mg/kg administered 15 min prior to AA challenge) and CT-112 (SEQ. ID NO: 1) administered via Alzet mini-pump (60 mg/kg/day for 7 days). For this latter study, the number of animals receiving the single injection of CT-112 (SEQ. ID NO: 1) was increased from 5 to 10.
Administration to mice of CT-112 (SEQ. ID NO: 1) (60 mg/kg/injection) via multiple subcutaneous injections prior to AA challenge was performed at:
In addition, other mice received only a single subcutaneous injection of CT-112 (SEQ. ID NO: 1) (60 mg/kg) at either 3 or 1 hr prior to AA challenge. […]

[1] = Table XII, 60 mg/kg/day via Alzet pump for 24 hr
[2] = Table XIV, 60 mg/kg/day via Alzet pump for 24 hr
[3] = single 6 mg/kg sc 4 hr prior to AA
[4] = Table XIII, 60 mg/kg/day via Alzet pump for 24 hr
[5] = Table XVII, single 6 mg/kg sc 4 hr prior to AA, ear thickness 1 hr post-challenge
[6] = Table XV, 60 mg/kg/day via Alzet pump for 24 hr

CC(C)[C@H](N)C(=O)N[C@H](C(=O)N[C@@H](CCCNC(=N)N)C(=O)N1CCC[C@H]1C(=O)N[C@H](C(=O)N[C@@H](CCC(N)=O)C(=O)N[C@@H](CCCNC(=N)N)C(=O)N[C@@H](CO)C(=O)O)[C@@H](C)O)[C@@H](C)O [CT-120, Val-Thr-Arg-Pro-Thr-Gln-Arg-Ser] (H-VTRPTQRS-OH)
% Inhibition [1]: 32%
Thickness Difference (Left - Right) [2]: 0.00412 ± 0.00168 in
inhibition of AA-induced increase in mouse ear thickness (FIG. 7), in words [3]: appeared to significantly inhibit inflammation

C[C@@H](O)[C@H](N)C(=O)N[C@@H](Cc1ccc(O)cc1)C(=O)N[C@@H](CO)C(=O)N[C@@H](CCCCN)C(=O)N1CCC[C@H]1C(=O)N[C@@H](Cc1ccccc1)C(=O)N[C@@H](Cc1c[nH]cn1)C(=O)N[C@@H](CCCCN)C(=O)O [CT-123] (H-TYSKPFHK-OH)
Thickness Difference (Left - Right) [4]: 0.00228 ± 0.00072 in

CC(C)[C@H](NC(=O)[C@H](CCC(N)=O)NC(=O)[C@H](CO)NC(=O)[C@@H](N)[C@@H](C)O)C(=O)N[C@@H](CCCNC(=N)N)C(=O)N1CCC[C@H]1C(=O)N[C@@H](CCCNC(=N)N)C(=O)O [Thr Ser Gln Val Arg Pro Arg (25), Thr Ser Gln Val Arg Pro Arg] (H-TSQVRPR-OH)
% Inhibition (Table XVI, single 6 mg/kg sc 4 hr prior to AA, ear thickness 1 hr post-challenge): 27.0%
% Inhibition [5]: 27.0%

CC[C@H](C)[C@H](NC(=O)CNC(=O)[C@H](CCC(N)=O)NC(=O)[C@H](CC(C)C)NC(=O)[C@@H](N)[C@@H](C)O)C(=O)N[C@@H](Cc1c[nH]cn1)C(=O)N1CCC[C@H]1C(=O)N[C@@H](CCCCN)C(=O)O [CT-176] (H-TLQGIHPK-OH)
Thickness Difference (Left - Right) [4]: 0.0022 ± 0.00137 in

CC[C@H](C)[C@H](NC(=O)[C@@H](N)Cc1ccc(O)cc1)C(=O)N[C@@H](C)C(=O)N[C@@H](CCCNC(=N)N)C(=O)N1CCC[C@H]1C(=O)N[C@@H](CC(C)C)C(=O)N1CCC[C@H]1C(=O)N[C@@H](CCCNC(=N)N)C(=O)O [CT-201] (H-YIARPLPR-OH)
Thickness Difference (Left - Right) [6]: 0.00362 ± 0.0004 in

CC(C)C[C@H](NC(=O)[C@H](CO)NC(=O)[C@@H](NC(=O)[C@@H](N)[C@@H](C)O)[C@@H](C)O)C(=O)N[C@@H](CC(N)=O)C(=O)N1CCC[C@H]1C(=O)N[C@@H](CC(=O)O)C(=O)N[C@@H](Cc1ccc(O)cc1)C(=O)N[C@@H](CCCNC(=N)N)C(=O)O [CT-220, Thr Thr Ser Leu Asn Pro Asp Tyr Arg] (H-TTSLNPDYR-OH)
% Inhibition [1]: 73%
Thickness Difference (Left - Right) [2]: 0.00164 ± 0.0016 in

CC(C)C[C@H](NC(=O)[C@H](CCCCN)NC(=O)[C@H](CCCNC(=N)N)NC(=O)[C@H](C)NC(=O)[C@@H](NC(=O)[C@@H](N)Cc1ccc(O)cc1)[C@@H](C)O)C(=O)N1CCC[C@H]1C(=O)N[C@@H](CCCNC(=N)N)C(=O)N[C@@H](CC(N)=O)C(=O)N[C@@H](Cc1ccccc1)C(=O)O [CT-183] (H-YTARKLPRNF-OH)
% Inhibition [1]: 51%
Thickness Difference (Left - Right) [6]: 0.00342 ± 0.00077 in

C[C@H](NC(=O)[C@H](CCC(=O)O)NC(=O)[C@H](CCCNC(=N)N)NC(=O)[C@@H](NC(=O)[C@@H](N)Cc1ccc(O)cc1)[C@@H](C)O)C(=O)N[C@@H](CO)C(=O)N[C@@H](CO)C(=O)N[C@@H](CC(N)=O)C(=O)N[C@@H](Cc1ccccc1)C(=O)O [CT-144] (H-YTREASSNF-OH)
Thickness Difference (Left - Right) [6]: 0.00344 ± 0.0012 in

CC(C)[C@H](NC(=O)[C@H](CCC(N)=O)NC(=O)[C@H](CCCCN)NC(=O)[C@@H](NC(=O)[C@@H](NC(=O)[C@H](CCCCN)NC(=O)[C@@H](NC(=O)[C@@H](N)CCC(N)=O)C(C)C)[C@@H](C)O)C(C)C)C(=O)N[C@@H](CO)C(=O)O [CT-173] (H-QVKTVKQVS-OH)
Thickness Difference (Left - Right) [2]: 0.00252 ± 0.00102 in

CC[C@H](C)[C@H](NC(=O)[C@@H](NC(=O)[C@H](Cc1c[nH]cn1)NC(=O)[C@@H](NC(=O)[C@H](CC(C)C)NC(=O)[C@H](CC(C)C)NC(=O)[C@@H](NC(=O)[C@H](Cc1c[nH]cn1)NC(=O)[C@@H](N)[C@@H](C)O)C(C)C)[C@@H](C)O)[C@@H](C)O)C(=O)O [CT-119] (H-THVLLTHTI-OH)
Thickness Difference (Left - Right) [2]: 0.00158 ± 0.0004 in

CC(C)C[C@H](NC(=O)[C@H](CO)NC(=O)[C@@H](NC(=O)[C@@H](N)[C@@H](C)O)[C@@H](C)O)C(=O)N[C@H](C(=O)N[C@@H](CCCNC(=N)N)C(=O)N1CCC[C@H]1C(=O)N[C@@H](CCCNC(=N)N)C(=O)O)C(C)C [Thr Thr Ser Leu Val Arg Pro Arg (61), Thr Thr Ser Leu Val Arg Pro Arg] (H-TTSLVRPR-OH)
% Inhibition [5]: 2.7%

CC[C@H](C)[C@H](NC(=O)[C@@H]1CCCN1C(=O)[C@H](CCCCN)NC(=O)[C@H](CCCCN)NC(=O)[C@H](CCCNC(=N)N)NC(=O)[C@@H](NC(=O)[C@@H](NC(=O)[C@H](CCC(=O)O)NC(=O)[C@@H](NC(=O)[C@H](CCCCN)NC(=O)[C@H](CCCNC(=N)N)NC(=O)[C@@H](NC(=O)[C@H](CCC(N)=O)NC(=O)[C@@H](N)C(C)C)C(C)C)[C@@H](C)CC)[C@@H](C)CC)C(C)C)C(=O)O [CT-125] (H-VQVRKIEIVRKKPI-OH)
Thickness Difference (Left - Right) [4]: 0.00288 ± 0.00075 in

CC(C)[C@H](NC(=O)CNC(=O)[C@H](CCC(N)=O)NC(=O)[C@@H](NC(=O)[C@@H](N)[C@@H](C)O)[C@@H](C)O)C(=O)N[C@@H](Cc1c[nH]cn1)C(=O)N1CCC[C@H]1C(=O)N[C@@H](CCCCN)C(=O)O [CT-164] (H-TTQGVHPK-OH)
Thickness Difference (Left - Right) [2]: 0.00146 ± 0.00053 in

C[C@@H](O)[C@H](N)C(=O)N[C@H](C(=O)N[C@@H](CO)C(=O)N[C@@H](CCC(N)=O)C(=O)N[C@@H](CCCCN)C(=O)N[C@@H](CCCNC(=N)N)C(=O)N1CCC[C@H]1C(=O)N[C@@H](CCCNC(=N)N)C(=O)O)[C@@H](C)O [Thr Thr Ser Gln Lys Arg Pro Arg (54), Thr Thr Ser Gln Lys Arg Pro Arg] (H-TTSQKRPR-OH)
% Inhibition [5]: 73.0%

CC(C)[C@H](NC(=O)[C@H](CCC(N)=O)NC(=O)[C@H](CO)NC(=O)[C@@H](NC(=O)[C@@H](N)[C@@H](C)O)[C@@H](C)O)C(=O)O [CT-114, Thr-Thr-Ser-Gln-Val] (H-TTSQV-OH)
Thickness Difference (Left - Right) (Table XI, 6 mg/kg/day minipump, AA 3 days after implantation): 0.00262 ± 0.00092 in
Thickness Difference (Left - Right) (Table XI, 60 mg/kg/day minipump, 3 days): 0.00242 ± 0.00074 in

CC[C@H](C)[C@H](NC(=O)CNC(=O)[C@H](CO)NC(=O)[C@@H](NC(=O)[C@@H](N)[C@@H](C)O)[C@@H](C)O)C(=O)N[C@@H](Cc1c[nH]cn1)C(=O)N1CCC[C@H]1C(=O)N[C@@H](CCCCN)C(=O)O [CT-127, Thr-Thr-Ser-Gly-Ile-His-Pro-Lys] (H-TTSGIHPK-OH)
inhibition of AA-induced increase in mouse ear thickness (FIG. 7), in words [3]: significantly effective in inhibiting inflammation
